{
  "source": "ChEMBL document CHEMBL4888484",
  "about": "“Replenishing the malaria drug discovery pipeline: Screening and hit evaluation of the MMV Hit Generation Library 1 (HGL1) against asexual blood stage Plasmodium falciparum ,using a nano luciferase reporter read-out” (2022)",
  "note": "The campaign covered roughly 150,000 compounds. About 540 (0.36%) showed an effect of 50% or more. Some of the results follow.",
  "data": [
    {"test_system": "Plasmodium falciparum", "experiment": "Primary screen in NF54 nanoGlo assay, in single point, at 2uM, 72h; a lower Z score goes with more inhibition", "format": "functional, Erythrocyte", "details": "timepoint 72 hour", "units": {"% Inhibition": "%"}, "values": [
      {"smiles": "NC(=O)[C@@H](c1ccccc1)N1CCN(c2nccn3cncc23)CC1", "% Inhibition": 4, "Z score": -0.77},
      {"smiles": "CC(C)Oc1ccc(N2C[C@@H](C(=O)NCCn3cnnn3)CC2=O)cc1", "% Inhibition": -13, "Z score": 2.23},
      {"smiles": "Cc1ccc(CNC(=O)N2C[C@@H]3CC[C@H]2CN(CC(=O)N(C)C)C3)cc1", "% Inhibition": -8, "Z score": 1.48},
      {"smiles": "C[C@@H](C(=O)N(CCC#N)c1ccccc1)N(C)CCc1ccncc1", "% Inhibition": -13, "Z score": 1.12},
      {"smiles": "O=C(NCc1cccc(Cn2cnc3ccccc32)c1)c1cncc(Br)c1", "% Inhibition": -8, "Z score": 1.5},
      {"smiles": "O=C(CC1CCOCC1)Nc1cc(Cl)cc(Br)c1O", "% Inhibition": -12, "Z score": 1.66},
      {"smiles": "CC[C@@]1(C2CCN(C(=O)Cc3ccccc3C)CC2)NC(=O)N(CCc2scnc2C)C1=O", "% Inhibition": -5, "Z score": 0.7},
      {"smiles": "CC(=O)NC(C)(C)C(=O)NCc1cc(C)[nH]n1", "% Inhibition": 0, "Z score": 0.02},
      {"smiles": "CCCn1cnnc1COC(=O)CCc1c[nH]c2ccccc12", "% Inhibition": 1, "Z score": -0.09},
      {"smiles": "Cc1ccoc1CN[C@@H]1CCOc2c(F)ccc(F)c21", "% Inhibition": 0, "Z score": -0.02},
      {"smiles": "Cc1cc(C(=O)N(Cc2cccnc2)Cc2ccco2)nc(O)n1", "% Inhibition": 5, "Z score": -0.81},
      {"smiles": "CCCN1CCC(NC(=O)c2cc3c(s2)CCCCC3)CC1", "% Inhibition": -9, "Z score": 1.28},
      {"smiles": "Cc1nccn1CCCC(=O)NCCOc1ccc(C(C)(C)C)cc1", "% Inhibition": -10, "Z score": 1.26},
      {"smiles": "Cc1ccc(F)cc1C(=O)N(C)C[C@H](C)C(=O)O", "% Inhibition": -14, "Z score": 1.71},
      {"smiles": "CCCNC(=O)[C@H](C)NC(=O)Nc1ccc(C)cc1", "% Inhibition": -17, "Z score": 2.25},
      {"smiles": "CN(CC#N)S(=O)(=O)c1cc(Br)cc2c1OCCNC2=O", "% Inhibition": -1, "Z score": 0.19},
      {"smiles": "C[C@@H](c1ncnn1Cc1ccccc1)N1CCCCC1", "% Inhibition": -23, "Z score": 3.07},
      {"smiles": "N#C[C@@H]1CN(c2nc3ccccc3o2)CCO1", "% Inhibition": -4, "Z score": 0.37},
      {"smiles": "Cc1ccc(N2CCC[C@@H]2COC(=O)c2ccn3cncc3c2)nn1", "% Inhibition": -7, "Z score": 0.84},
      {"smiles": "O=C1C[C@H](N2CCCCCC2)C(=O)N1c1ccc(Br)cc1Br", "% Inhibition": -10, "Z score": 1.65},
      {"smiles": "CC1(C)C(=O)N(Cc2ccccc2)CCN1S(=O)(=O)N1CCOCC1", "% Inhibition": 17, "Z score": -2.21},
      {"smiles": "COc1cccc(NC(=O)NCC(F)(F)F)c1Br", "% Inhibition": 5, "Z score": -0.61},
      {"smiles": "Cc1ccc(-c2noc(-c3cccn3CC(=O)N(C)C3CCCCC3)n2)cc1", "% Inhibition": 3, "Z score": -0.36},
      {"smiles": "O=C(O)C1CCC(Nc2ccc(Cc3nnc4n3CCCCC4)cc2)CC1", "note": "(stereo not drawn)", "% Inhibition": -10, "Z score": 0.94},
      {"smiles": "C[C@]1(C(=O)O)CCCN(Cc2ccc3nsnc3c2)C1", "% Inhibition": -11, "Z score": 2.25},
      {"smiles": "Cc1nncn1CCN1CCC[C@H](c2nc3ccccc3n2C)C1", "% Inhibition": -1, "Z score": 0.1},
      {"smiles": "O=C(N[C@H]1CCCN(C(=O)C2CCC2)C1)c1ccc2ccccc2c1", "% Inhibition": -26, "Z score": 2.61},
      {"smiles": "O=C(CCCn1cccn1)N1CCC(Cn2ccnc2)CC1", "% Inhibition": -4, "Z score": 0.41},
      {"smiles": "CCCCc1cc(NC(=O)c2ccc(C#N)cn2)on1", "% Inhibition": 1, "Z score": -0.14},
      {"smiles": "C#CCNC(=O)[C@H](C#N)c1nc(C)c(C)s1", "% Inhibition": 32, "Z score": -0.92},
      {"smiles": "C[C@H]1CN(C)c2ccccc2CN1C(=O)NCc1ccccc1S(N)(=O)=O", "% Inhibition": -16, "Z score": 2.43},
      {"smiles": "Cc1cccc(Cn2c(-c3cnccn3)n[nH]c2=O)c1", "% Inhibition": -4, "Z score": 0.56},
      {"smiles": "Nc1nc2c(s1)[C@@H](c1ccccc1OCc1cccc(Cl)c1)CC(O)=N2", "% Inhibition": 24, "Z score": -2.71},
      {"smiles": "Cc1cc(-c2nc(-c3ccc(F)cc3)no2)c(C)n1CC(=O)NCc1ccc2c(c1)OCO2", "% Inhibition": -4, "Z score": 0.76},
      {"smiles": "Cc1cn(C)nc1CN1C[C@@H](N)Cc2ccccc21", "% Inhibition": -9, "Z score": 0.97},
      {"smiles": "Cc1c(-c2nnc(C(=O)NCCCN(C)C3CCCCC3)o2)oc2c(C)cccc12", "% Inhibition": 15, "Z score": -1.73},
      {"smiles": "CN(c1cc(CO)c(F)cn1)C1CCC1", "% Inhibition": -16, "Z score": 1.72},
      {"smiles": "Cc1nc(-n2cnnc2)ccc1-c1ccc(F)c2cccnc12", "% Inhibition": -7, "Z score": 1.28},
      {"smiles": "O=C(CN[C@@H](Cc1ccccc1)c1cccs1)N1CCOCC1", "% Inhibition": -3, "Z score": 0.3},
      {"smiles": "Cc1ccsc1CN(Cc1ccccc1)C(=O)CN(C(=O)C1CCCCC1)C1CCCCC1", "% Inhibition": -17, "Z score": 1.9},
      {"smiles": "CCOC(=O)c1cc2nc(C)n(CC)c2cc1N(CC)C(C)=O", "% Inhibition": -32, "Z score": 3.79},
      {"smiles": "CCOc1ncccc1C(=O)Nc1cnn2c1NCCC2", "% Inhibition": -7, "Z score": 1.28},
      {"smiles": "CO[C@H]1COC[C@@H]1Nc1ncc(C(F)(F)F)cc1Cl", "% Inhibition": -6, "Z score": 0.78},
      {"smiles": "Cn1ncnc1-c1ccc(CCC(C)(C)O)cc1", "% Inhibition": 8, "Z score": -1.08},
      {"smiles": "CC(C)[C@@H]1C[C@@H](CNC(=O)NC2CCC(=O)N(C)C2)c2ccccc21", "note": "(stereo partly drawn)", "% Inhibition": -9, "Z score": 1.43},
      {"smiles": "CCc1nnc2ccc(-c3noc(Cc4cc(OC)cc(OC)c4)n3)cn12", "% Inhibition": -7, "Z score": 1.13},
      {"smiles": "COCCCN(Cc1ccco1)C[C@H](O)COC(C)(C)C", "% Inhibition": 2, "Z score": -0.27},
      {"smiles": "COc1ccc2c(c1)C(N1CCN(C(=O)c3cc(F)cc(F)c3)[C@@H](C)C1)=Nc1ccccc1O2", "% Inhibition": -5, "Z score": 0.88},
      {"smiles": "COCCCN1C(=O)CC(CC(=O)N2CCCC(c3ccccc3C)C2)(c2ccccc2Cl)C1=O", "note": "(stereo not drawn)", "% Inhibition": -2, "Z score": 0.29},
      {"smiles": "C=CCN1CCC[C@H]1C(=O)N(C)CC1(C)COC1", "% Inhibition": 7, "Z score": -0.93},
      {"smiles": "CC(=O)c1cccc(NC(=O)N2C[C@H](c3nc(C)no3)C3(CCOCC3)C2)c1", "% Inhibition": 1, "Z score": -0.13},
      {"smiles": "CCO[C@H]1CN(Cc2noc(-c3ccccc3)n2)C[C@@H]1O", "% Inhibition": -4, "Z score": 0.85},
      {"smiles": "Cc1c(C(=O)N2CCCC3(CCN(C)CC3)CC2)nnn1Cc1ccccc1", "% Inhibition": -8, "Z score": 1.2},
      {"smiles": "CN(CCCn1cccn1)C(=O)[C@@H]1CCCC[C@@H]1C(=O)N1CCCC1", "% Inhibition": -10, "Z score": 2.01},
      {"smiles": "Cc1cc(C)c([C@@H](O)Cn2ccn3nc(-c4cccc(Br)c4)cc3c2=O)c(C)c1", "% Inhibition": -10, "Z score": 1.11},
      {"smiles": "COc1ccccc1CNC(=O)CC(C)(C)CC1=NS(=O)(=O)c2ccccc2N1", "% Inhibition": 11, "Z score": -1.29},
      {"smiles": "CCCn1ncc([C@H]2C[C@@H](NC(C)=O)C[C@@H](c3ccc(Cl)cc3)O2)c1C", "% Inhibition": 4, "Z score": -0.57},
      {"smiles": "Nc1nc2n(n1)[C@H](c1ccc(Cl)cc1)CC(=O)N2", "% Inhibition": 35, "Z score": -3.95},
      {"smiles": "CC(C)CN1C[C@H](C(=O)Nc2ccc(F)cc2)C[C@H](C(=O)NC2CCCC2)C1", "% Inhibition": -11, "Z score": 1.29},
      {"smiles": "C[C@H]1CC2(CCNCC2)CN1C(=O)c1csc2ccccc12", "% Inhibition": 2, "Z score": -0.28},
      {"smiles": "CC1(C)CN(C(=O)C2(c3ccc(Cl)c(Cl)c3)CCC2)CC[C@@H]1N", "% Inhibition": -7, "Z score": 1.24},
      {"smiles": "CCN1CN(S(=O)(=O)c2c[nH]c3ncc(Br)cc23)CC1=O", "% Inhibition": -4, "Z score": 0.56},
      {"smiles": "COc1ccc(CCNC(=O)Cn2ccc3ncccc3c2=O)cc1", "% Inhibition": -15, "Z score": 1.52},
      {"smiles": "O=C(C[C@H]1Cc2c(n(Cc3ccccc3)c(=O)[nH]c2=O)NC1=O)Nc1ccc(Cl)c(Cl)c1", "% Inhibition": 32, "Z score": -3.58},
      {"smiles": "Cc1cccnc1CNC(=O)Nc1nccn(C)c1=O", "% Inhibition": -6, "Z score": 0.65},
      {"smiles": "CCc1nccn1C[C@H](C)N1CC(Oc2ccccc2)C1", "% Inhibition": -4, "Z score": 0.76},
      {"smiles": "CN(C(=O)c1cc(C(C)(C)C)cc(C(C)(C)C)c1)C(C)(C)C", "% Inhibition": -5, "Z score": 0.84},
      {"smiles": "O=C(COc1ccc(Br)cc1)Nc1ccc(S(=O)(=O)Nc2cccc(C(F)(F)F)c2)cc1NC(=O)COc1ccc(Br)cc1", "% Inhibition": 30, "Z score": -3.01},
      {"smiles": "CNC(=O)N1CCC[C@H]1c1nc(C2CN(C(=O)c3ccc(OC)cc3OC)C2)no1", "% Inhibition": 3, "Z score": -0.37},
      {"smiles": "COc1ccc(Cc2c(C)nc(C)nc2N2CCN(S(=O)(=O)c3ccc(OC)cc3)CC2)cc1", "% Inhibition": -17, "Z score": 1.57},
      {"smiles": "CNCC#CCOc1ccc(C)c(C)c1", "% Inhibition": -5, "Z score": 0.56},
      {"smiles": "Cn1c(=O)n(Cc2cccc3cccnc23)c2ccccc21", "% Inhibition": -7, "Z score": 0.94},
      {"smiles": "CCC(C)(C)C(=O)NC(C)C(O)c1ccc(F)c(F)c1", "note": "(stereo not drawn)", "% Inhibition": -13, "Z score": 1.63},
      {"smiles": "C[C@H]1CN(C(=O)NCc2ccccc2Br)CCCO1", "% Inhibition": -6, "Z score": 0.92},
      {"smiles": "CC1CN(C(=O)CCc2cccc(N(C)C)c2)CC[S+]([O-])C1", "note": "(stereo not drawn)", "% Inhibition": -5, "Z score": 0.55},
      {"smiles": "Cn1c(=O)[nH]c(=O)c2cc(S(=O)(=O)N[C@]3(C)CC=CCC3)cnc21", "% Inhibition": -2, "Z score": 0.33},
      {"smiles": "O=C(Nc1cc(Br)ccc1F)C(=O)NC1CCC1", "% Inhibition": -3, "Z score": 0.51},
      {"smiles": "Cc1cccc(NC(=O)Cn2ccn3nc4c(c3c2=O)CCCCC4)c1C", "% Inhibition": -12, "Z score": 1.56},
      {"smiles": "Fc1cc(Cl)cc(-c2nccn2CC2CCOCC2)c1", "% Inhibition": -15, "Z score": 1.86},
      {"smiles": "CN(c1ccc(O)cc1)S(=O)(=O)c1cnn(CC2CC2)c1", "% Inhibition": -12, "Z score": 1.94},
      {"smiles": "Cc1c(C(=O)NCc2ccc(F)cc2)c(C)n2cnn(CC(=O)Nc3ccccc3)c(=O)c12", "% Inhibition": 6, "Z score": -1},
      {"smiles": "CC1(CNC(=O)N2CCC[C@]3(CCCN(Cc4ccccc4)C3)C2)COC1", "% Inhibition": 11, "Z score": -2.02},
      {"smiles": "Cn1ncc2c(N3CCNC(=O)C3)nc(CCc3ccccc3)nc21", "% Inhibition": -15, "Z score": 1.48},
      {"smiles": "COc1cc(Br)ccc1[C@H](C)NCc1cncnc1", "% Inhibition": -7, "Z score": 0.92}
    ]}
  ]
}
